Test results from the supplement of paper PMC4967469.
By IC50 is meant the dose at which the fit gives 50% viability; a limit (>, <) means that the fit lies beyond the doses tested. The AUC spans the tested range (256-fold, ending at the top dose) of the same fit; values near 1 show little effect.

Compound: N#CC[C@H](C1CCCC1)n1cc(-c2ncnc3[nH]ccc23)cn1 [Ruxolitinib]
Assay: Viability of human cancer cell lines after 72 h of drug (GDSC screen)
Procedure: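 Human cancer cell lines in 384-well plates, medium with 10% serum, drug for 72 h over a 256-fold dose range (nine 2-fold or five 4-fold steps up to the top dose). Adherent lines were fixed and stained with the nucleic acid dye Syto60, suspension lines read with resazurin; signal relative to control wells, capped at 0 and 100%. One two-parameter sigmoid per drug and line, fitted in a mixed model over all curves with the slope shared within a line.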

Row | Cell Line | AUC | IC50 [µM]
1 | NCI-H1993 (lung adenocarcinoma, adherent, top dose 5.24 µM) | 0.981 | > 5.24
2 | NCI-H2009 (lung adenocarcinoma, adherent, top dose 5.24 µM) | 0.985 | > 5.24
3 | NCI-H2023 (lung adenocarcinoma, adherent, top dose 5.24 µM) | 0.982 | > 5.24
4 | NCI-H2029 (small cell lung carcinoma, adherent, top dose 5.24 µM) | 0.992 | > 5.24
5 | NCI-H2030 (lung adenocarcinoma, adherent, top dose 5.24 µM) | 0.971 | > 5.24
6 | NCI-H2052 (mesothelioma, adherent, top dose 5.24 µM) | 0.977 | > 5.24
7 | NCI-H2081 (small cell lung carcinoma, suspension, top dose 5.24 µM) | 0.987 | > 5.24
8 | NCI-H2085 (lung adenocarcinoma, adherent, top dose 5.24 µM) | 0.983 | > 5.24
9 | NCI-H2087 (lung adenocarcinoma, semi-adherent, top dose 5.24 µM) | 0.887 | > 5.24
10 | NCI-H2110 (non-small cell lung carcinoma, adherent, top dose 5.24 µM) | 0.982 | > 5.24
11 | NCI-H2122 (lung adenocarcinoma, adherent, top dose 5.24 µM) | 0.989 | > 5.24
12 | NCI-H2135 (non-small cell lung carcinoma, adherent, top dose 5.24 µM) | 0.989 | > 5.24
13 | NCI-H2141 (small cell lung carcinoma, suspension, top dose 5.24 µM) | 0.952 | > 5.24
14 | NCI-H2170 (lung squamous cell carcinoma, adherent, top dose 5.24 µM) | 0.985 | > 5.24
15 | NCI-H2171 (small cell lung carcinoma, suspension, top dose 5.24 µM) | 0.987 | > 5.24
16 | NCI-H2172 (non-small cell lung carcinoma, adherent, top dose 5.24 µM) | 0.983 | > 5.24
17 | NCI-H2196 (small cell lung carcinoma, adherent, top dose 5.24 µM) | 0.959 | > 5.24
18 | NCI-H2227 (small cell lung carcinoma, semi-adherent, top dose 5.24 µM) | 0.98 | > 5.24
19 | NCI-H2228 (lung adenocarcinoma, adherent, top dose 5.24 µM) | 0.917 | > 5.24
20 | NCI-H2291 (lung adenocarcinoma, adherent, top dose 5.24 µM) | 0.983 | > 5.24
21 | NCI-H2342 (lung adenocarcinoma, adherent, top dose 5.24 µM) | 0.986 | > 5.24
22 | NCI-H2347 (lung adenocarcinoma, adherent, top dose 5.24 µM) | 0.977 | > 5.24
23 | NCI-H2405 (lung adenocarcinoma, adherent, top dose 5.24 µM) | 0.976 | > 5.24
24 | NCI-H2444 (non-small cell lung carcinoma, adherent, top dose 5.24 µM) | 0.988 | > 5.24
25 | NCI-H2452 (mesothelioma, adherent, top dose 5.24 µM) | 0.984 | > 5.24
26 | NCI-H3122 (lung adenocarcinoma, adherent, top dose 5.24 µM) | 0.951 | > 5.24

Row | Cell Line | AUC | IC50 [µM]
27 | NCI-SNU-1 (stomach, suspension, top dose 5.24 µM) | 0.981 | > 5.24
28 | NCI-SNU-5 (stomach, suspension, top dose 5.24 µM) | 0.988 | > 5.24
29 | NCI-SNU-16 (stomach, suspension, top dose 5.24 µM) | 0.991 | > 5.24
30 | NEC8 (testis, adherent, top dose 5.24 µM) | 0.991 | > 5.24
31 | NH-12 (neuroblastoma, adherent, top dose 5.24 µM) | 0.984 | > 5.24
32 | NK-92MI (lymphoid neoplasm, suspension, top dose 5.24 µM) | 0.159 | 0.0327
33 | NKM-1 (acute myeloid leukaemia, suspension, top dose 5.24 µM) | 0.983 | > 5.24
34 | NMC-G1 (glioma, adherent, top dose 5.24 µM) | 0.98 | > 5.24
35 | NOMO-1 (acute myeloid leukaemia, suspension, top dose 5.24 µM) | 0.979 | > 5.24
36 | NOS-1 (osteosarcoma, adherent, top dose 5.24 µM) | 0.978 | > 5.24
37 | NTERA-2 cl.D1 (testis, adherent, top dose 5.24 µM) | 0.984 | > 5.24
38 | NU-DUL-1 (B-cell lymphoma, suspension, top dose 5.24 µM) | 0.986 | > 5.24
39 | NUGC-3 (stomach, adherent, top dose 5.24 µM) | 0.984 | > 5.24
40 | NUGC-4 (stomach, adherent, top dose 5.24 µM) | 0.986 | > 5.24
41 | NY (osteosarcoma, adherent, top dose 5.24 µM) | 0.989 | > 5.24
42 | OACM5-1 (oesophagus, semi-adherent, top dose 5.24 µM) | 0.978 | > 5.24
43 | OACp4C (oesophagus, adherent, top dose 5.24 µM) | 0.974 | > 5.24
44 | OAW-28 (ovary, adherent, top dose 5.24 µM) | 0.981 | > 5.24
45 | OAW-42 (ovary, adherent, top dose 5.24 µM) | 0.983 | > 5.24
46 | OC-314 (ovary, adherent, top dose 5.24 µM) | 0.991 | > 5.24
47 | OCI-AML2 (acute myeloid leukaemia, suspension, top dose 5.24 µM) | 0.995 | > 5.24
48 | OCI-AML3 (acute myeloid leukaemia, suspension, top dose 5.24 µM) | 0.986 | > 5.24
49 | OCI-AML5 (acute myeloid leukaemia, suspension, top dose 5.24 µM) | 0.965 | > 5.24
50 | OCI-LY-19 (B-cell lymphoma, suspension, top dose 5.24 µM) | 0.966 | > 5.24
51 | OCI-M1 (acute myeloid leukaemia, suspension, top dose 5.24 µM) | 0.069 | < 0.0205
52 | OCUB-M (breast, adherent, top dose 5.24 µM) | 0.987 | > 5.24

Row | Cell Line | AUC | IC50 [µM]
53 | OCUM-1 (stomach, adherent, top dose 5.24 µM) | 0.985 | > 5.24
54 | OE19 (oesophagus, adherent, top dose 5.24 µM) | 0.986 | > 5.24
55 | OE21 (oesophagus, adherent, top dose 5.24 µM) | 0.977 | > 5.24
56 | OE33 (oesophagus, adherent, top dose 5.24 µM) | 0.984 | > 5.24
57 | OMC-1 (cervix, adherent, top dose 5.24 µM) | 0.979 | > 5.24
58 | ONS-76 (medulloblastoma, adherent, top dose 5.24 µM) | 0.981 | > 5.24
59 | OS-RC-2 (kidney, adherent, top dose 5.24 µM) | 0.978 | > 5.24
60 | OSC-19 (head and neck, adherent, top dose 5.24 µM) | 0.973 | > 5.24
61 | OSC-20 (head and neck, adherent, top dose 5.24 µM) | 0.983 | > 5.24
62 | OV-7 (ovary, adherent, top dose 5.24 µM) | 0.976 | > 5.24
63 | OV-17R (ovary, adherent, top dose 5.24 µM) | 0.98 | > 5.24
64 | OV-56 (ovary, adherent, top dose 5.24 µM) | 0.989 | > 5.24
65 | OV-90 (ovary, adherent, top dose 5.24 µM) | 0.979 | > 5.24
66 | OVCA420 (ovary, adherent, top dose 5.24 µM) | 0.981 | > 5.24
67 | OVCA433 (ovary, adherent, top dose 5.24 µM) | 0.984 | > 5.24
68 | OVCAR-3 (ovary, adherent, top dose 5.24 µM) | 0.983 | > 5.24
69 | OVCAR-4 (ovary, adherent, top dose 5.24 µM) | 0.964 | > 5.24
70 | OVCAR-5 (ovary, adherent, top dose 5.24 µM) | 0.982 | > 5.24
71 | OVISE (ovary, adherent, top dose 5.24 µM) | 0.961 | > 5.24
72 | OVK-18 (ovary, adherent, top dose 5.24 µM) | 0.985 | > 5.24
73 | OVKATE (ovary, adherent, top dose 5.24 µM) | 0.976 | > 5.24
74 | OVMIU (ovary, adherent, top dose 5.24 µM) | 0.974 | > 5.24
75 | OVTOKO (ovary, adherent, top dose 5.24 µM) | 0.951 | > 5.24
76 | P12-ICHIKAWA (T-cell lymphoblastic leukaemia, suspension, top dose 5.24 µM) | 0.974 | > 5.24
77 | P30-OHK (lymphoblastic leukaemia, suspension, top dose 5.24 µM) | 0.967 | > 5.24
